The record followed here is PubChem BioAssay AID360 (National Center for Advancing Translational Sciences (NCATS), 2006).

The campaign covered roughly 48,000 compounds. About 550 (1.1%) were called active. Roughly 4% stayed inconclusive and do not appear here. No stated cut-off is given here; in the data, active means potency below about 15 µM; inconclusive means mostly about 16 µM to 33 µM; inactive means weaker than that. The list shows a part of the results. Some results are limits rather than exact numbers.
Potency means the concentration at half of the fitted maximal effect.

This assay addresses Lysosomal acid glucosylceramidase (Homo sapiens) (UniProt P04062). Description: Glucocerebrosidase.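 Further: the screen sought inhibitors.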 As to conditions: purified enzyme, resorufin glucoside fluorescence (screen aimed at inhibitors), 20 min. The method in brief: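 Normal human glucocerebrosidase (0.2 nM final) was assayed with resorufin β-D-glucopyranoside (30 uM final) in 50mM citric acid/KH2PO4, 10mM sodium taurocholate, 0.01% tween-20, pH 5.9. Compounds were titrated; fluorescence (Ex 548, Em 600) read after 20 min at RT.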
Sequence of UniProt P04062 (P04062 whole entry, looked up): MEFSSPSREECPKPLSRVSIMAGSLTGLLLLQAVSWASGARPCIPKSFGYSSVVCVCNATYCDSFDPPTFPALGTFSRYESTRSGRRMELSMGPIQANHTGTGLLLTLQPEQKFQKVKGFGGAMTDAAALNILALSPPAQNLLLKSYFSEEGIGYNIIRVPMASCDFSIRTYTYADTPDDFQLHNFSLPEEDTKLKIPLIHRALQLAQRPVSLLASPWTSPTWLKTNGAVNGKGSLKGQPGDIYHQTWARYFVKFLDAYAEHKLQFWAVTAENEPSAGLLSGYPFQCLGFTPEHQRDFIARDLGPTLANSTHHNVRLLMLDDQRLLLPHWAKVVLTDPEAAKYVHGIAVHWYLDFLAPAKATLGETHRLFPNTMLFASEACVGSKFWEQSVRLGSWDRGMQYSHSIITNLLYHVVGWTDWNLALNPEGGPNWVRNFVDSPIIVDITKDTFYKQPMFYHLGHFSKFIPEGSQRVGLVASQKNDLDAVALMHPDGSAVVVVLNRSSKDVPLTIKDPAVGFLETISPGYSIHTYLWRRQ
In the case of `Cc1ccccc1-c1nc(-c2cccnc2)no1`, the Potency is inactive: > 76.9 µM. The result for `CCOC(=O)c1cn(CC)c2ccc(Br)cc2c1=O` reads inactive: > 76.9 µM; that for `COc1ccc(C(=O)COc2ccc(NC(C)=O)cc2)cc1`, inactive: > 76.9 µM. In the case of `Cc1ccc(-n2ncc(C(=O)O)c2C2CCN(C(=O)OC(C)(C)C)CC2)cc1`, the Potency is inactive: > 76.9 µM. The result for `CCOC(=O)c1cc2sccc2n1CC(=O)N1CCN(C(=O)c2ccco2)CC1` reads inactive: > 76.9 µM; that for `CC1CCN(C(=O)Cn2cc(C(=O)c3ccco3)c3ccccc32)CC1`, active: 12.7 µM; that for `COc1ccccc1NC(=O)c1ccc(N)cc1`, inactive: > 76.9 µM. For `CC(=O)Nc1nonc1-c1nc2ccccc2n1CCC#N`, the Potency is inactive: > 76.9 µM. As for `COc1ccc(OC)c(S(=O)(=O)N2c3cc(F)ccc3CCC2C)c1` (stereo not given), the figure is inactive: > 76.9 µM; as for `COc1ccc(CCn2c(NCCCN3CCOCC3)nc3c2c(=O)[nH]c(=O)n3C)cc1`, inactive: > 76.9 µM; as for `COc1cc(OC)cc(C(=O)N2CCN(Cc3cccc(F)c3)CC2)c1`, inactive: > 76.9 µM. As for `O=C(Nc1ccccc1C(=O)N1CCOCC1)C1CC(=O)N(C2CCCC2)C1` (stereo not given), the figure is inactive: > 76.9 µM; as for `CCN1CCN(C(=O)c2cc3c(=O)n4ccccc4nc3n2Cc2ccccc2)CC1`, inactive: > 76.9 µM. The result for `COc1ccc(CCNS(=O)(=O)c2ccc(C(=O)NCc3ccco3)cc2)cc1OC` reads inactive: > 76.9 µM; that for `COc1ccc(N(CC(=O)Nc2cc(C(=O)O)ccc2C)S(=O)(=O)c2c(C)noc2C)cc1`, inactive: > 76.9 µM; that for `CCOC(=O)C1CCc2sc(N)c(C#N)c21` (stereo not given), inactive: > 76.9 µM.

In the case of `CC1CCCN(c2oc(-c3cccc4ccccc34)nc2C#N)C1` (stereo not given), the Potency is inactive: > 15.4 µM. As for `COc1ccc(NCc2nnc(SCC#N)n2-c2ccccc2OC)cc1`, the Potency is inactive: > 76.9 µM. With `O=C(NC(NCCCN1CCOCC1)(C(F)(F)F)C(F)(F)F)C1CCCCC1`, the Potency is inactive: > 76.9 µM. The result for `CC(C)NC(=O)c1cc(-c2ccco2)on1` reads inactive: > 76.9 µM; that for `Cc1nn(CC(=O)Nc2ccc3c(c2)oc2ccccc23)c(=O)c2ccccc12`, inactive: > 76.9 µM.

On to `CCOC(=O)C1CCN(c2nc3cc(OC)ccc3cc2C#N)CC1`, for which the Potency is inactive: > 76.9 µM. For `Cc1cccc(C(=O)Nc2ncc(CN3CCOCC3)s2)c1`, the Potency is inactive: > 76.9 µM. Turning to `OCCc1ccc(-c2ccc(Cl)cc2)o1`, the Potency is inactive: > 76.9 µM. The result for `CCc1c(C)nc2ncnn2c1N1CCC(C(=O)N2CCN(c3ccc(F)cc3)CC2)CC1` reads inactive: > 76.9 µM.
